Assay results published in PubChem BioAssay AID1346428 (National Center for Advancing Translational Sciences (NCATS), 2018).
“And” between values parts separate entries of the source, which are not always exact repeats. Equal entries are not always repeated. About 1,200 (2.5%) of roughly 48,000 compounds were called active. Inconclusive results (about 2%) are left out.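 The calls were made as follows: active = activation of at least 60% and not above a set upper limit (about 1 call in 100 departs from these limits); inconclusive = activation of 40% to 60%, or above that upper limit; inactive = activation under 40%.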 This is one part of the list.

target: Probable G-protein coupled receptor 32 (Homo sapiens) (UniProt O75388); assay: qHTS for Agonists of Human Resolvin D1 Receptor DRV1; settings: CHO-K1 GPR32 beta-arrestin PathHunter luminescence, 90 min; at 76.9 µM; hits give high values; zero percent set by DMSO-only wells; also: 0% is about no effect
How it was run: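 Agonism was scored by beta-Gal fragment complementation (chemiluminescent read, 1 h detection at ambient temperature) reporting beta-arrestin binding to GPR32 in engineered CHO-K1 cells. Compound treatment lasted 90 min at 37 C, normalized to a DMSO basal control.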

Sequence of UniProt O75388 (O75388 whole entry, looked up, the tested form may be a part): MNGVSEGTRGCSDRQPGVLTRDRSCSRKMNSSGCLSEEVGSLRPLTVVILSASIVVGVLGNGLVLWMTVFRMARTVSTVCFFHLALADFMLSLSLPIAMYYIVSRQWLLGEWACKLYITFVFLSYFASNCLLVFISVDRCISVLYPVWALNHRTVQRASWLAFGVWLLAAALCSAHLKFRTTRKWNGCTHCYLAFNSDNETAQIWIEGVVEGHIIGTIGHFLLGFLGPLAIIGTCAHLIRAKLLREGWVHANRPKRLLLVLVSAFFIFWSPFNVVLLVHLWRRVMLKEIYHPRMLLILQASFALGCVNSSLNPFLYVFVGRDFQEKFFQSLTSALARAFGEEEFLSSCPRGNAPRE

activation, inactive:
CCCCNC(=O)C1CCN(c2nc3ccc(C)cc3[nH]2)CC1 -10.5%
COC(=O)c1ccccc1NC(=O)c1cn2c3c(ccc(Cl)c3c1=O)OC(C)C2 (stereo not drawn) 10.9%
NC(=O)CSc1oc(-c2cccs2)nc1S(=O)(=O)c1ccc(Br)cc1 -1.93%
Cc1cccc(C(=O)Nc2ccc(C(=O)OCc3cc(=O)n4c(C)csc4n3)cc2)c1 -3.62%
CCCCOc1cccc(C(=O)N(Cc2ccc(Br)o2)C2CCS(=O)(=O)C2)c1 (stereo not drawn) -31%
Cc1cc(F)ccc1NC(=O)C1CCN(S(=O)(=O)c2ccc3c(c2)CCCC(=O)N3)CC1 -0.241%
Cc1ccccc1Cn1cc(CCC(=O)NCc2cccc(Br)c2)c2ccccc21 -21.9%
O=C(c1cnc2c(c1)COc1ccccc1-2)c1ccccc1O 41.7%
COC(=O)c1ccc(NC(=O)N2CCN(c3nnc(C)c4c(C)n(-c5ccccc5)nc34)CC2)cc1 -11%
O=C(Cn1c(=O)c(C(F)(F)F)nc2ccccc21)Nc1ccc(Br)cc1F 1.5%
COc1ccc(S(=O)(=O)N2CCN(c3ccccc3)CC2)cc1-c1noc(C)n1 -10.4%
CC(C)c1cnc2c(c1SCC(=O)c1ccccc1)c(=O)n(C)c(=O)n2C -27%
O=C(NCc1ccccc1)c1ccc2c(c1)N(Cc1ccccc1)C(=O)c1ccccc1S2(=O)=O -29%
CC(C)(C)NC(=O)CSc1nc(-c2ccc(F)cc2)cc(C(F)(F)F)n1 11.4%
COc1ccc(S(=O)(=O)NCC(c2ccco2)N2CCN(c3ccc(F)cc3)CC2)cc1 (stereo not drawn) -31.6%
Cc1cc(C)cc(NC(c2nnc(-c3cccc(F)c3)o2)c2ccc(F)cc2Cl)c1 (stereo not drawn) -25.6%
COc1ccc(Cc2nc3ccc(C(=O)NCCc4ccc(OC)c(OC)c4)cc3o2)cc1 -23.5%
Nc1ccc(C(=O)Nc2ccccc2N)cc1 6.98%
CCOC(=O)Cn1c(=O)n(C2CCCCC2)c2nc(-c3ccc(OC)cc3)nc(C(N)=O)c21 -7.63%
Cc1cc(C)c(S(=O)(=O)Nc2cc(Cl)c3oc4c(c3c2)C(=O)CCC4)cc1C -11.1%
Cn1c(=O)n(C)c2cc(CNCc3ccccc3)ccc21 1.51%
Cc1ccc(CNS(=O)(=O)c2cc(Br)cc3c2N(C(=O)C2CC2)CC3)cc1 2.67%
Cc1ccc(Cn2c(=O)n(Cc3ccccc3)c(=O)c3c(C)c(C)sc32)cc1 -7.92%
Cc1ccc(CNC(=O)C(=O)NCC(c2ccco2)S(=O)(=O)c2ccc(C)cc2)cc1 (stereo not drawn) -15%
Cc1cccc2c(=O)cc(CSCC(=O)Nc3ccc(Cl)cc3)[nH]c12 -11.3%
CCOc1ccc(C(=O)Nc2ccc(-c3nnc4n3CCCCC4)cc2)cc1OCC -9.16%
CS(=O)(=O)Nc1ccc([N+](=O)[O-])cc1Oc1ccccc1 -54.3% and -33.3%
COc1cc(C)nc(-n2nc(C)cc2OC)n1 -31.4%
Cc1ccc(-n2c(=O)c3c4c(sc3n(CC(=O)Nc3cccc(Cl)c3)c2=O)CCCCC4)cc1C -1.85%
Fc1ccc(C(NCCc2ccccc2)c2nnc(-c3ccccc3Cl)o2)cc1 (stereo not drawn) -25.2%
Cc1ccc(C)c(CN2CCCN(CC(=O)Nc3ccc(C)c(C)c3)S2(=O)=O)c1 -2.25%
Cc1cccc(C)c1OCC(=O)NC(Cc1c[nH]c2ccccc12)C(=O)O (stereo not drawn) 6.57%
Cc1ccc(S(=O)(=O)NCc2nc3nc(C)cc(C)n3n2)cc1 5.62%
Cn1cc(C(=O)NCc2ccccc2Cl)c(=O)c2cc(S(=O)(=O)N3CCCCCC3)ccc21 -6.61%
CCOC(=O)c1c(S(=O)(=O)N2CCC(C(=O)N3CCN(c4ccccc4F)CC3)CC2)c(C)n(C)c1C -0.626%
CCn1cc(C(=O)O)c(=O)c2cc(F)c(N3CCNC(C)C3)c(F)c21 (stereo not drawn) -27.7% and 3.87%
COc1cc(Cl)c(C)cc1NC(=O)CCc1nc2cccnc2n1Cc1cccs1 -16.4%
CCN(CC)CCCNC(=O)c1ccc(Cn2c(=O)[nH]c3cc(OC)c(OC)cc3c2=O)cc1 -12.8%
CCOC(=O)c1ccc(NC(=O)CCCn2c(=O)c3cccn3c3cccnc32)cc1 -7.26%
COc1ccc(CCNC(=O)c2cn(C)c3ccc(S(=O)(=O)N4CCOCC4)cc3c2=O)cc1OC 23.8%
CC(C)N(Cc1ccccc1)C(=O)Cn1ncc2c3ccccc3n(Cc3ccccc3)c2c1=O -12.3%
Cc1nn(-c2ccc(Cl)cc2)c2nc(-c3cccnc3)cc(C(F)(F)F)c12 -15%
COc1ccc(NC(=O)C2CCN(S(=O)(=O)c3c(C)noc3/C=C/c3cccs3)CC2)cc1 -14.9%
Cc1cccc(Cn2c(SCc3ccc(C(=O)NC4CCCC4)cc3)nc3cccnc32)c1 -9.63%
COc1cccc(-c2noc(CCCC(=O)NCc3ccco3)n2)c1 -5.98%
O=C(CSc1ccccc1)NCc1ccc2c(c1)CCN2C(=O)c1ccccc1 -11.6%
COc1ccc(OC)c(CNC(=O)c2ccc(NC(=O)c3nsc4ccccc34)cc2)c1 -17.1%
Cc1ccccc1OCCCCn1c(CCNC(=O)C(C)(C)C)nc2ccccc21 -0.665%
COc1ccc(OC)c(S(=O)(=O)NCC(c2ccco2)S(=O)(=O)c2ccccc2)c1 (stereo not drawn) -20.4%
COC(=O)c1ccccc1NC(=O)c1ccc(-c2nc(CSc3ccc(C)cc3)c(C)o2)cc1 0.344%
CCn1cc(S(=O)(=O)c2cccc(Cl)c2)c(=O)c2cc(F)c(N3CCN(C)CC3)cc21 5.06%
CN(Cc1ccccc1)C(=O)CCS(=O)(=O)c1ccc2c(c1)oc(=O)n2C -16.5%
CNC(=O)c1c(NC(=O)c2nc(SCc3ccc(C)cc3)ncc2Cl)sc2c1CCCC2 16.8%
CCOC(=O)c1cc(S(=O)(=O)N2CCN(c3cccc(C)c3C)CC2)[nH]n1 -44.9%
COc1cccc(CNC(=O)C2CCN(C(=O)c3cnn(-c4ccccc4)c3-n3cccc3)CC2)c1 -26.2%
COc1ccc(-c2cc(C(C)=O)c(C)n2CCC(=O)NCc2ccc(C)cc2)cc1 -23.8%
Cc1ccc(NC(=O)Nc2cn(CC(C)C)c(=O)c3ccccc23)cc1N(C)C -0.0809%
Cc1ccc(-n2ncc(C(=O)NC3CCCCC3)c2C2CCN(C(=O)OC(C)(C)C)CC2)cc1 -12.7%
COc1ccccc1OCC(=O)N1CCC(c2nc3ccccc3o2)CC1 2.79%
CCN(c1ccccc1C)S(=O)(=O)c1nnc(NC(=O)c2ccco2)s1 17.7%
COc1ccc(Nc2nnc(-c3ccc(C)c(S(=O)(=O)NCCO)c3)c3ccccc23)cc1C(N)=O -31.4%
CCCS(=O)(=O)c1ncc(Cl)c(C(=O)Nc2c(C(=O)Nc3ccccc3)oc3ccccc23)n1 41.3%
Cc1ccc(NC(=O)c2c(C)oc3c2C2=NCCN2C=N3)cc1F 28.7%
O=c1ccc2c(OCCCCc3ccccc3)c3ccoc3cc2o1 -37.9%
COc1ccc(N(C)C(=O)c2cc3c(s2)-c2c(C)cccc2OC3)c(OC)c1 -29.3%
COc1ccc(-c2c(C)nn3c(C(F)(F)F)cc(-c4ccccc4)nc23)cc1OC -13.6%
COc1ccc(CNc2nc3c(-c4cccc(F)c4)nnn3c3ccccc23)cc1 11.5%
CN(CC(=O)NCc1ccc(F)cc1)S(=O)(=O)c1ccc2[nH]c3c(c2c1)CCCC3 42%
COC(=O)c1cc2sccc2n1CC(=O)Nc1ccc(OC)c(OC)c1 -4.93%
Cc1cccn2c(=O)cc(CSc3nnc(NC(=O)COc4ccccc4)s3)nc12 1.13%
NCC(O)c1ccc(O)c(O)c1 (stereo not drawn) 0.45%
O=C(c1ccc2c(c1)N(Cc1cccc(F)c1)C(=O)c1ccccc1S2)N1CCC2(CC1)OCCO2 -30.6%
O=C(Cn1cccc1C(=O)c1ccccc1)NCc1ccccc1Cl -9.35%
O=C(Nc1cccnc1)c1cc(-c2ccc(Cl)cc2)on1 20.6%
Cc1c(Cl)cccc1NC(c1ccc(F)cc1)c1nnc(-c2ccccc2)o1 (stereo not drawn) -2.55%
COc1ccc(C2=C(N3CCN(c4cc(C)ccc4C)CC3)c3ccccc3C2=O)cc1 -6.16%
CCc1ccc(-n2c(=O)c3sc4ccccc4c3n(CC(=O)NCc3ccccc3)c2=O)cc1 14.7%
COC(=O)c1ccc(NC(=O)C(=O)NCC(c2cccnc2)N2CCc3ccccc32)cc1 (stereo not drawn) -0.448%
Cc1cccc(C)c1NC(=O)CSc1nc2ccccc2c2nc(CCc3c(C)n[nH]c3C)nn12 -13%
Cc1c(Cl)cccc1NC(=O)Cn1nnc(-c2nc(-c3ccccc3)no2)c1N -7.91%
Cc1c(NC(=O)c2sc3ccccc3c2Cl)cccc1-c1nc2ccccc2o1 6.35%
CCCOc1ccc(C(=O)Nc2ccc3oc(-c4ccc(N(C)C)cc4)nc3c2)cc1 5.18%
CCC1=C[C@@H]2CN(C1)Cc1c([nH]c3ccccc13)[C@@](C(=O)OC)(c1cc3c(cc1OC)N(C)[C@H]1[C@@](O)(C(=O)OC)[C@H](OC(C)=O)[C@]4(CC)C=CCN5CC[C@]31[C@@H]54)C2 -8.14%
